The supplement of paper PMC3334620
Over roughly 33,000 sequences, “E-score (-0.5 to 0.5)” has its median near -0.016; the highest 2% begin near 0.32. The list shows a part of the results.

target: T1, Stp1 (UniProt B3LFK1); assay: PBM E-score (8-mer binding enrichment) (E-score (-0.5 to 0.5)); higher = stronger / more preferred TF binding; most listed sequences are background and not binding sites; conditions: protein concentration: 200 nM; construct: GST-full length
T1 sequence: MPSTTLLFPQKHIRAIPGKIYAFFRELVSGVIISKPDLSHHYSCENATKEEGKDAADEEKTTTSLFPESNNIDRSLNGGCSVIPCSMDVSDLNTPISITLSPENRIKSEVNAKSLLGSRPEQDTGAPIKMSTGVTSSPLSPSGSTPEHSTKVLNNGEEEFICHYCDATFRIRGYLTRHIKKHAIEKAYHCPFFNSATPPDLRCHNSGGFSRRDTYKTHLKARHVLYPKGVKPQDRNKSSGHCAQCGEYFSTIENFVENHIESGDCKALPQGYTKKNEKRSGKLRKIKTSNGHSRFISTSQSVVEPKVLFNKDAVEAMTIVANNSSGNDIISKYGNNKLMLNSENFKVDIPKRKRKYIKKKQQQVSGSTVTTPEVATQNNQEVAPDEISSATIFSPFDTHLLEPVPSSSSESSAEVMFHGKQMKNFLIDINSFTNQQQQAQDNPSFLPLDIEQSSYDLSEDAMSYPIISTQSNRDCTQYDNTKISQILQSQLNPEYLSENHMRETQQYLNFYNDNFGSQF
Experimental: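 Universal 'all 10-mer' protein binding microarrays (Agilent AMADID 015681) probed with GST-tagged S. cerevisiae TFs (full-length or DBD) made by in vitro transcription/translation (PURExpress), about 100-200 nM. Bound TF was detected with fluorescent anti-GST. Each ungapped 8-mer (which stands for itself and its reverse complement) is scored by the PBM enrichment score (E-score), a modified Wilcoxon-Mann-Whitney statistic from -0.5 to +0.5, computed with the Universal PBM Analysis Suite. Scale: above 0.35 generally sequence-specific binding.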

Compared with GGCAACAA, AGAGATTC is lower in “PBM E-score” value: 0.309 for the first, -0.0324 for the second.

Compared with ACACGAAA, ACGGTGCG is higher in “PBM E-score” value: 0.0839 for the first, 0.173 for the second.

Going from GTCAATTA to TAGTTATA, the “PBM E-score” value falls from 0.106 to 0.0803.

Going from GAGATCCA to GACAATGC, the “PBM E-score” value rises from -0.0824 to 0.126.

Compared with CGCGATCC, GGCTGCCA is higher in “PBM E-score” value: -0.0162 for the first, 0.0727 for the second.

Going from CCCCGTAC to AACGGAGC, the “PBM E-score” value rises from 0.0216 to 0.0361.

First: ACTCCCGG
Second: CAGATGTC
The “PBM E-score” value of the first is lower: -0.187 for the first, -0.15 for the second.

Compared with AAGTCACT, CACACGTC is lower in “PBM E-score” value: 0.0121 for the first, -0.0138 for the second.

First: AATACTAG
Second: CGACCAAC
The “PBM E-score” value of the first is higher: 0.0884 for the first, -0.0193 for the second.

Compared with GGGAACAC, AAGATCTC is lower in “PBM E-score” value: -0.0624 for the first, -0.23 for the second.

Going from CTCTACCC to CTTTAAGC, the “PBM E-score” value rises from -0.236 to 0.0759.

First: CTCGATCC
Second: ACGGGGCC
The “PBM E-score” value of the first is higher: -0.0198 for the first, -0.0286 for the second.

First: ATGACAGC
Second: GAGGAAGC
The “PBM E-score” value of the first is higher: 0.0104 for the first, -0.226 for the second.

First: GATGGAGA
Second: CCTCCCTA
The “PBM E-score” value of the first is higher: -0.00272 for the first, -0.28 for the second.

Going from CTCAGCTC to TATTTCGA, the “PBM E-score” value rises from -0.0878 to 0.241.

First: AACCAACG
Second: GGTGGTAC
The “PBM E-score” value of the first is higher: -0.0438 for the first, -0.289 for the second.

Going from TCATCAGA to ACCCATGC, the “PBM E-score” value falls from -0.0331 to -0.167.

Going from AGACACCG to CACTTCAC, the “PBM E-score” value rises from -0.131 to -0.0796.

Going from AGCGCAAC to CGGATTGC, the “PBM E-score” value rises from -0.0708 to 3e-05.

Compared with AAGTCAAG, CTTTGAAC is higher in “PBM E-score” value: -0.236 for the first, -0.0989 for the second.

Going from TCAAACAA to CCATTCCG, the “PBM E-score” value falls from 0.211 to 0.0745.

Compared with ATGTTCTG, CAGTCTGA is higher in “PBM E-score” value: -0.167 for the first, -0.0528 for the second.

Going from GGACCTCC to ATTCTCCC, the “PBM E-score” value rises from -0.241 to -0.0193.

Going from CGGTCGAA to GCATTAGC, the “PBM E-score” value falls from 0.0265 to -0.109.

Compared with ATTAAGAA, GAGAAATA is higher in “PBM E-score” value: 0.148 for the first, 0.223 for the second.

Going from AATAAGGC to ATCCAGAA, the “PBM E-score” value falls from 0.231 to 0.0804.

Going from ACAGAGTA to GGGTACCA, the “PBM E-score” value falls from 0.107 to -0.242.

First: ATCGCCTA
Second: TACCTTAA
The “PBM E-score” value of the first is lower: -0.111 for the first, 0.0917 for the second.

Compared with ACGTTTTA, GACTATAC is lower in “PBM E-score” value: 0.153 for the first, -0.0187 for the second.

First: ACAGAGCT
Second: CCGGGGGC
The “PBM E-score” value of the first is higher: -0.189 for the first, -0.393 for the second.

Compared with CCGTATAA, CAGTCAGA is lower in “PBM E-score” value: 0.341 for the first, -0.257 for the second.

First: CCCTGCCA
Second: CCAGGCAG
The “PBM E-score” value of the first is higher: -0.0377 for the first, -0.133 for the second.

Going from AAATCGTT to CACCCCAA, the “PBM E-score” value falls from 0.0207 to -0.106.

CCCGTTTA and ACAAATAG are the same in “PBM E-score” value: 0.185 for the first, 0.185 for the second.

Compared with AGTGGGCC, GTTGGGCA is higher in “PBM E-score” value: -0.14 for the first, 0.0977 for the second.

Compared with CTTGCCAC, AGTGCTTA is lower in “PBM E-score” value: 0.0727 for the first, -0.0234 for the second.

Compared with GGTCTATA, GCCTTTAC is higher in “PBM E-score” value: -0.0214 for the first, 0.108 for the second.

Compared with AATACACT, GGTATTGA is lower in “PBM E-score” value: 0.18 for the first, -0.176 for the second.

First: AAGTAGGT
Second: ATTTTAAA
The “PBM E-score” value of the first is lower: -0.121 for the first, 0.315 for the second.

Going from CTCCTATC to ATGCGGGA, the “PBM E-score” value rises from -0.163 to 0.0997.

Going from GTGTAAAA to GGAGAGTA, the “PBM E-score” value falls from 0.0522 to -0.237.

Going from TCTTAGAA to CACTTATA, the “PBM E-score” value falls from 0.237 to 0.096.

Compared with ACTGCAAG, CCAGAGTA is higher in “PBM E-score” value: -0.127 for the first, 0.0185 for the second.
